# Data: PMC4336329 (PLoS ONE, 2015)
# The campaign covered roughly 310,000 compounds. About 14,000 (4.5%) showed an effect of 50% or more. The effect is printed as a negative number. The list shows a part of the results.
# Biological target: human ether-à-go-go-related gene (hERG) potassium channel (human, UniProt Q12809)
# Test: primary screen, population patch clamp on CHO cells stably expressing hERG
# 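Also: peak tail current of the secondary pulse compared with the same well before compound.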
# human ether-à-go-go-related gene (hERG) potassium channel, sequence (Q12809 whole entry, looked up): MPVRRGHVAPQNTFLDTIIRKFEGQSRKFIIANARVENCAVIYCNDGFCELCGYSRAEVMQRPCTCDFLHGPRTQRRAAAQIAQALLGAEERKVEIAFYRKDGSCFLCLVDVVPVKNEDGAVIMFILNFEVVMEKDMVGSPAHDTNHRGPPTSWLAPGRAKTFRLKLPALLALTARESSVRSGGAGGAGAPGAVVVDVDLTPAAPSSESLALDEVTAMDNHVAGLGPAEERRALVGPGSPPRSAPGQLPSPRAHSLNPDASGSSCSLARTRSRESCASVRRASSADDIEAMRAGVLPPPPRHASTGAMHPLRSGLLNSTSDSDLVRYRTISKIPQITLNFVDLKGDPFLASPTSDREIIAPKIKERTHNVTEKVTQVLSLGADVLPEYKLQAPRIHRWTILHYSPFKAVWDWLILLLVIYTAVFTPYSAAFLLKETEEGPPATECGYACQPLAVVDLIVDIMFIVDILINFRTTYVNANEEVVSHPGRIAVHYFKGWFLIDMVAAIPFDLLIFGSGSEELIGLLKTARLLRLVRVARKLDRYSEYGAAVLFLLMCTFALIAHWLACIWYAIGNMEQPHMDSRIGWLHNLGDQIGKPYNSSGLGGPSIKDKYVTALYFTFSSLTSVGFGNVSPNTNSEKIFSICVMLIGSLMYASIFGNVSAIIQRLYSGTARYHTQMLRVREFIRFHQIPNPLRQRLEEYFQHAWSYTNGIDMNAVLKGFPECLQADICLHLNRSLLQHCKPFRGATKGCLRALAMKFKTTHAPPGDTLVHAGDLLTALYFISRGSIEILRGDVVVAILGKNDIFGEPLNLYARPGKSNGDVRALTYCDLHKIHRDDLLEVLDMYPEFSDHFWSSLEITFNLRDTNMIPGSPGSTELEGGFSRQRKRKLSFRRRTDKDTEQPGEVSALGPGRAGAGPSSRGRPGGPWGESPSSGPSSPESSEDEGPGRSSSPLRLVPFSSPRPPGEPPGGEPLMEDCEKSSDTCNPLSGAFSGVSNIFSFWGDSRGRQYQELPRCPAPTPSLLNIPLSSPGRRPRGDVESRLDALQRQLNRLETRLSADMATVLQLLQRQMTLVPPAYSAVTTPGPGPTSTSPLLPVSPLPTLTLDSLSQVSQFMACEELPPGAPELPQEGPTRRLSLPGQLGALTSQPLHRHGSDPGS
row,Compound,"hERG current change (%, negative = inhibition) at 10uM [%]"
1,CCOC(=O)c1[nH]c2ccc(OC)cc2c1NC(=S)N1CCN(c2ccc(F)cc2)CC1,3.84
2,COc1ccccc1NC(=S)NC1CCC(CC2CCC(NC(=S)Nc3ccccc3OC)CC2)CC1 (stereo not shown),4.75
3,Cc1ccc(NC(=O)NC(=O)CSc2n[nH]c(N)n2)c(C)c1,25.9
4,CCC(=O)N/C(=N/c1nc(C)cc(C)n1)Nc1ccccc1,-39.4
5,O=c1[nH]c2ccccc2n1C1=CCCC1,-6.36
6,CS(=O)(=O)c1ccc(Cl)c(NC(=O)COC(=O)c2c(Cl)cccc2Cl)c1,-5.85
7,CC(C)(C)NC(=O)CN(C(=O)c1csnn1)c1ccccc1-c1ccccc1,14.4
8,COc1ccc(-c2noc(-c3cc(C)cc(C)c3)n2)cc1OC,9.97
9,CN(C)c1ccc(C(=O)NN2C(=O)c3ccccc3C2=O)cc1,28
10,CCOC(=O)N1CCN(C(=O)NC23CC4CC(CC(C4)C2)C3)CC1,10
11,COC(=O)C1CCN(Cc2ccc(OCCCN3CCN(c4ccc([N+](=O)[O-])cc4)CC3)cc2)CC1,-73.7
12,CNC(=S)N1CCN(C(=O)C2CCCO2)CC1 (stereo not shown),8.38
13,CC(C)C(C)NC(=O)COc1ccc(Sc2ccc(OCC(=O)NC(C)C(C)C)cc2)cc1 (stereo not shown),-18.3
14,CC[C@@H]1C(=O)OC[C@@H]1Cc1cncn1C.O=[N+]([O-])O,8.55
15,Cn1c(=O)c2cc(S(=O)(=O)NC(C(=O)N3CCCCCC3)c3ccccc3)ccc2n(C)c1=O (stereo not shown),-22.6
16,O=C(CSc1ncnc2[nH]ncc12)Nc1cccc(Oc2ccccc2)c1,8.64
17,COc1ccc(Cc2nnc3sc(SCC(=O)Nc4ccccc4)nn3c2=O)cc1OC,1.23
18,CC1=C(C#N)C(/C=N/OCc2ccc(Cl)cc2)CC(=O)N1 (stereo not shown),-34.1
19,CN1C(=O)/C(=C/c2ccc(OCc3ccc(C(=O)O)cc3)c(Cl)c2)NC1=S,20.4
20,COc1ccc(OC)c(Nc2ncnc3c2cnn3-c2ccccc2)c1,-3.61
21,CC(NC(=O)c1cc2ccccc2o1)c1ccccc1 (stereo not shown),-4.8
22,COc1ccc(-c2cc(C(F)F)n3ncc(C(=O)N4CCc5ccccc5C4)c3n2)cc1,-8.97

row,Compound,"hERG current change (%, negative = inhibition) at 10uM [%]"
1,O=C(NCCO)c1cc2c(s1)CCC2,3.07
2,Cc1ccc(N2CC(C(=O)N3CCc4ccccc4C3)CC2=O)cc1 (stereo not shown),-44.5
3,COc1ccc(CN2C(=O)CS(=O)CC2=O)cc1OC,13.8
4,COc1cc(CC(=O)OCC(=O)N2CC(=O)Nc3ccccc32)cc(OC)c1OC,8.28
5,Cc1ccc2c(SCC(=O)NCc3ccco3)nc(-c3ccc(F)cc3)nc2c1,-13.2
6,CCC(Sc1nncn1C)C(=O)Nc1nnc(-c2ccccc2Cl)s1 (stereo not shown),-11
7,O=C(CC1CCCC1)NCCc1cn2ccccc2n1,1.81
8,CCOC(=O)[C@H]1[C@H]2COc3cc(OC)ccc3[C@@H]2N2C(=O)c3cc(OC)c(OC)cc3NC(=O)[C@@]12C,-2.44
9,OC(COc1ccc(Cl)cc1Cl)Cn1ccnc1 (stereo not shown),9.67
10,CC(=O)c1ccc(OC(=O)C(CCS(C)(=O)=O)N2C(=O)c3ccccc3C2=O)cc1 (stereo not shown),-0.543
11,OCCOc1ccc(CN2CCCC(N3CCN(c4ccc(F)cc4)CC3)C2)cc1 (stereo not shown),-69.8
12,CC(=O)c1c(C)n(CCCOC(C)C)c2ccc(O)cc12,-30.4
13,COc1c(C)oc2cc(O)ccc2c1=O,10.9
14,CCCN(c1ccc(C)cc1)c1nc(=O)c2cccnc2s1,-28
15,O=C(C1Cc2ccccc2CN1S(=O)(=O)c1ccc(F)cc1)N1CCCCCC1 (stereo not shown),-12.2
16,O=C(CSc1nc2ccc(S(=O)(=O)N3CCOCC3)cc2[nH]1)N1CCOCC1,14.7
17,Cc1ccccc1S(=O)(=O)c1cc2ccccc2nc1N,7.84
18,CCOc1ccccc1NC(=O)CN(c1ccc(C)cc1)S(=O)(=O)c1c(C)n[nH]c1C,6.72
19,CN(C)CCN(C(=O)CCc1ccccc1)c1nc2c(F)cc(F)cc2s1.Cl,-33.4
20,CC1(C(=O)N(CC(=O)NC2CCCC2)C2CCCC2)CC(=O)N=C2C=CC=CN21 (stereo not shown),22.5
21,O=c1c2ccccc2ncn1-c1cccc(Cl)c1,3.93
